51 compounds from paper PMC6919601, “Identification of Plasmodium dipeptidyl aminopeptidase allosteric inhibitors by high throughput screening” (PLoS ONE, 2019) can be followed below.

Out of some 110,000 compounds screened, about 230 (0.21%) showed an effect of 50% or more. Some of the results follow.
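Further: 30 min substrate incubation versus DMSO and 10 µM JCP410 controls.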

In this experiment the target is DPAP1 (Plasmodium falciparum, UniProt Q8IIJ9). The experiment is described as follows: primary screen, percent inhibition; read by cleavage of a fluorogenic dipeptide substrate; higher = more effect of the substance. Set-up: species or system P. falciparum D10 trophozoite lysates; single well.
DPAP1, sequence (Q8IIJ9 whole entry, looked up): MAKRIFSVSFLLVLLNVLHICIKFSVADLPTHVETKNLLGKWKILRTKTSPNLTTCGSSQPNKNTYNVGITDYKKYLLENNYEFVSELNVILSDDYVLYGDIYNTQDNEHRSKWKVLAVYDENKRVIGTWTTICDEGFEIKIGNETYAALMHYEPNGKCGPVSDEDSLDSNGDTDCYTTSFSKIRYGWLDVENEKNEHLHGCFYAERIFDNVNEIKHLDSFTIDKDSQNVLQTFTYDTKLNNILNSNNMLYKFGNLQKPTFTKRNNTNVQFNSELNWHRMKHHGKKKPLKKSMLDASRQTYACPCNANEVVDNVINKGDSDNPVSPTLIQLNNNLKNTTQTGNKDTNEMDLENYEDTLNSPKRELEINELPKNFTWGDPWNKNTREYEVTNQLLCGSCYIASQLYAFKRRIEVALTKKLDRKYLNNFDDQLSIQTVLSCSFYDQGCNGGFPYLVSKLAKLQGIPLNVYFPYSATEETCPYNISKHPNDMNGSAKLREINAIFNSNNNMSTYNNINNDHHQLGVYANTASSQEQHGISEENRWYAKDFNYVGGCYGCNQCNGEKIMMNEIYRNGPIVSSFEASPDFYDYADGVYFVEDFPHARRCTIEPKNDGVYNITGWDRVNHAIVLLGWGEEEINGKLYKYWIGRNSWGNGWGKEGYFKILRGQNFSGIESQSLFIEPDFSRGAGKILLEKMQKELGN
Take `CCSc1nnc(NC(=O)c2cc(=O)c3ccc(C)cc3o2)s1`: the “% Inhibition @ 10 uM” value came out at 1.9%.
As for `CC1C2CC(C(S(=O)(=O)O)C2=O)C1(C)C` (stereo not drawn), the “% Inhibition @ 10 uM” value was -7.55%.
On to `O=C(NCc1ccco1)NC1(C(F)(F)F)Oc2cc(Cl)c(Cl)cc2O1`, for which the “% Inhibition @ 10 uM” value was 2.84%.
Turning to `CCCCc1ccc(N2CC(C(=O)Nc3ccccc3F)CC2=O)cc1` (stereo not drawn), the “% Inhibition @ 10 uM” value was determined as 0.726%.
As to `CCOC(=O)c1c(NC(=O)CSC2=NN3CCCC(=O)N=C3S2)sc2c1CCC2`, the “% Inhibition @ 10 uM” value is given as 2.77%.
Regarding `CC(=O)c1ccc(OCC(O)CN2CCCCC2C)cc1` (stereo not drawn), the “% Inhibition @ 10 uM” value is 2.13%.
In the case of `CCOc1ccc(/C=C2\CN(CC)CC3=C2OC(N)=C(C#N)C3c2ccc(OCC)cc2)cc1` (stereo not drawn), the “% Inhibition @ 10 uM” value is -1.06%.
Take `N#CC1=C(N)Oc2[nH]nc(-c3ccccn3)c2C1c1ccccc1F` (stereo not drawn): the “% Inhibition @ 10 uM” value is reported as -10.4%.
The value for `O=[N+]([O-])c1ccc(-c2cc(-c3ccc([N+](=O)[O-])cc3)[nH]n2)cc1` was 3.01%.
With `CC(C)(C)C(=O)Nc1ccc(S(=O)(=O)c2ccc(NC(=O)C(C)(C)C)cc2)cc1` the figure was 6.31%; with `CCc1ccc(C(C)NC(=O)c2ccccc2)cc1` (stereo not drawn), -3.27%; with `CC1CCN(S(=O)(=O)c2ccc(NC(=O)[C@@H]3CCCC[C@@H]3C(=O)O)cc2)CC1`, -2.68%.
Regarding `Cc1nc2sccn2c(=O)c1S(=O)(=O)N1CCC2(CC1)OCCO2`, the “% Inhibition @ 10 uM” value is -9.08%.
As to `COc1ccc(-c2onc(C)c2C)cc1S(=O)(=O)N(C)Cc1cnn(-c2ccccc2)c1`, the “% Inhibition @ 10 uM” value amounted to 1.73%.
With `COc1ccc(OC)c(CNC(=O)C2CCN(S(=O)(=O)N3CCC(C)CC3)CC2)c1`, the “% Inhibition @ 10 uM” value is recorded as 3.66%.
The value for `CCOC(=O)c1ccc(-c2ccc(C=O)o2)cc1` was 7.62%; that for `CCn1cc(/C=C(\NC(=O)c2ccccc2F)C(=O)NCc2ccccc2)c2ccccc21` was -0.0235%.
`Cc1ccc2[nH]c(/C(C#N)=C/c3ccc(F)cc3)nc2c1`: the “% Inhibition @ 10 uM” value is listed as -4.76%.
The value for `CC1CCCCN1C(=O)CCn1cnc2onc(-c3ccc(F)cc3)c2c1=O` (stereo not drawn) was 3.1%; that for `COc1ccccc1-c1cc(C)nc(N)c1C#N` was -5.65%; that for `NC(=O)C1CCN(S(=O)(=O)c2ccccc2)CC1` was 1.4%.
The value for `COc1ccc(NC(=O)CN(c2cccc(Cl)c2)S(C)(=O)=O)c(OC)c1` was 3.17%; that for `Cc1nc2c(C(=O)NCCC(C)C)cnn2c(O)c1Cc1ccccc1F` was 0.0654%; that for `CC(C)(C)/N=C(\N=C(\NS(=O)(=O)c1ccccc1)c1ccccc1)c1ccc(Br)cc1` was -0.183%.
With `Cc1ccc(-c2onc(C)c2C)cc1S(=O)(=O)N1CCN(Cc2ccccc2)CC1` the figure was -6.26%.
With `CN(c1cccc(NC(=O)COc2ccc(Cl)cc2Cl)c1)S(C)(=O)=O`, the “% Inhibition @ 10 uM” value is listed as 6.86%.
With `COc1cc(CN(C)CCN(C)C)cc(OC)c1O` the figure was -1.5%; with `COc1ccc(C2C3=C(O)CCCC3=NC(C)=C2C(=O)Nc2ccccc2F)c(OC)c1` (stereo not drawn), -6.36%.
On to `CCCc1cc(O)n2nc(N)nc2n1`, for which the “% Inhibition @ 10 uM” value is given as -0.671%.
With `CC1=NN2C(=N)/C(=C\c3cc(C)n(-c4ccccc4)c3C)C(=O)N=C2S1`, the “% Inhibition @ 10 uM” value stood at 0.484%.
For `CC(=O)N1CCC(N2CCN(c3ccccn3)CC2)CC1`, the “% Inhibition @ 10 uM” value is -0.274%.
Regarding `COCCn1c(Sc2nc(C)cs2)nc2c1c(=O)[nH]c(=O)n2C`, the “% Inhibition @ 10 uM” value is reported as 0.758%.
For `CC1CCCC(N2CCN(CCOCCO)CC2)C1` (stereo not drawn), the “% Inhibition @ 10 uM” value is listed as 0.472%.
The value for `Cc1nc(=O)c(-c2ccccc2)c(C)n1CCc1c[nH]c2ccccc12` was -5.48%; that for `c1ccc(Cc2nn3c(-c4ccccc4)nnc3s2)cc1` was 3.38%; that for `CCCCCOC(=O)Nc1nnc(CCC)s1` was -4.08%.
With `O=C(O)c1cnc2cc(N3CCOCC3)c(F)cc2c1O` the figure was 0.51%; with `COc1ccc(/C=C\c2onc(C)c2S(=O)(=O)N2CCC(C(=O)Nc3nccs3)CC2)cc1`, -11%.
The value for `CCN(CC)S(=O)(=O)c1ccc(NC(=O)COc2ccc(Br)cc2)cc1` was -6.16%.
With `Cc1ccc2c(C)c(C(=O)N(Cc3sccc3C)C3CCS(=O)(=O)C3)oc2c1` (stereo not drawn), the “% Inhibition @ 10 uM” value was 3.57%.
The value for `O=C1OC(c2ccccc2F)=N/C1=C\c1coc2ccccc2c1=O` was -11.7%; that for `Cc1ccc(OCc2nc(-c3ccc(C(=O)NCCN4CCCCC4C)cc3)oc2C)cc1` (stereo not drawn) was -0.591%; that for `Nc1[nH]ncc1-n1nnc2ccccc21` was -3.96%.
The value for `O=C(O)COCc1nnc(S)n1-c1ccccc1` was 1.42%; that for `O=C(C1c2ccccc2C(=O)N2CCc3ccccc3C12)N1CCN(Cc2ccccc2)CC1` (stereo not drawn) was -5.09%; that for `Cc1oc(-c2cccc(F)c2)nc1CSCC(=O)O` was -3.78%.
Take `CCOc1ccccc1N(CC(=O)Nc1cc(C)ccc1C)S(C)(=O)=O`: the “% Inhibition @ 10 uM” value is on record as -8.2%.
With `Cc1ccc(NC(=O)c2cc3ccc4cccnc4c3[nH]2)nc1` the figure was -1.07%.
`COc1ccc(-c2cc(-c3ccc(OC)cc3)c(C#N)c(SCC(=O)c3ccc(C)cc3)n2)cc1`: the “% Inhibition @ 10 uM” value is -1.97%.
Consider `CCCc1nc(-c2ccc(-c3ccc(OC)cc3)nc2OCC)no1`, for which the “% Inhibition @ 10 uM” value was -3.13%.
The value for `COc1ccc(Nc2cc(C)nc3c(C)cccc23)cc1OC` was -5.13%.
